# PubChem BioAssay AID686979 (National Center for Advancing Translational Sciences (NCATS), 2013)
# Among all 420,000 compounds or so, about 50,000 (12%) were called active. The inconclusive results got no clear call from the source; some entries with a clear call stand among them for comparison. The call rests on the fitted dose curve; in most records, active means well fitted inhibition curve with a large enough effect; inconclusive means small, poorly fitted or top-dose-only effect; inactive means flat fitted curve, though single readings scatter. Potencies of inconclusive entries are left out as doubtful fits.
# Test: qHTS for Inhibitors of human tyrosyl-DNA phosphodiesterase 1 (TDP1): qHTS in cells in presence of CPT; further: nearly all actives have a fitted effect of over 55% in size
# Settings: chicken DT40 Tdp1-/-;hTDP1 cells + 20 nM CPT, ATP luminescence, 48 h; series mostly up to 46.2 µM
# Method in brief: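 Cell growth measured by CellTiter-Glo luminescence after a minimum 48 h, 37 C compound exposure with 20 nM CPT in Tdp1-knockout DT40 cells stably expressing hTDP1, seeded 400/well; qHTS titration format.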
# Potency means the concentration at half of the fitted maximal effect; tags describe the fitted curve by direction and shape.
row,Compound,Potency
1,COC(=O)[C@@H]1C[C@@]2(O)[C@@H](O)[C@@H](O)[C@@H](O)C[C@H]2N1CC(c1ccccc1)c1ccccc1,inactive
2,COc1ccc(NC(=O)c2cc(-c3ccc(F)cc3OC)n[nH]2)c(C)c1,"inconclusive [inhibitor, single point]"
3,COC(=O)c1cc2c(ccn2-c2ccc(F)cc2)n1CC(C)C,"inconclusive [inhibitor, single point]"
4,O=C(CSc1ccc(S(=O)(=O)N2CCCC2)cn1)Nc1ccc([N+](=O)[O-])cc1C(F)(F)F,"inconclusive [inhibitor, single point]"
5,C[C@@H](C(=O)NCC1CC1)[C@H]1C[C@]1(C)[C@H](NC(=O)OCc1ccccc1)c1ccccc1,active: 25.9 µM
6,CN(C(=O)c1cc2c(=O)n3ccccc3nc2s1)C1CCCCC1,"inconclusive [inhibitor, single point]"
7,COc1ccc(NC(=O)C2Cc3c(-c4ccncc4)ccnc3O2)cc1OC (stereo unspecified),"inconclusive [inhibitor, single point]"
8,Cc1ccc(-c2csc3ncn(CC(=O)O)c(=O)c23)cc1C,inactive
9,CS(=O)(=O)N1CCC(Oc2ccccc2C(=O)NC2CCCCCC2)CC1,"inconclusive [inhibitor, single point]"
10,COc1ccc2c(c1)-c1nc(NC(=O)c3cccc(Br)c3)sc1CC2,"inconclusive [inhibitor, single point]"
11,Cc1ccc(NC(=O)CN2C(=O)c3cccnc3Sc3ccccc32)c(Br)c1,"inconclusive [inhibitor, single point]"
12,Cc1ccc2oc(C(=O)NCc3ncc(C)[nH]3)c(C)c2c1,active: 5.17 µM
13,Cc1ccc(Nc2c3c(nc4nncn24)CCC3)c(C)c1,"inconclusive [inhibitor, single point]"
14,O=S(=O)(c1cccs1)N1CCc2ccccc21,"inconclusive [inhibitor, single point]"
15,O=C(Nc1ccc2c(c1)OCCO2)C(c1cc2ccccc2o1)N1CCC(Cc2ccccc2)CC1 (stereo unspecified),"inconclusive [inhibitor, single point]"
16,O=C(N[C@@H](Cc1ccccc1)C(=O)NCCc1c[nH]c2ccccc12)c1ccco1,"inconclusive [inhibitor, full curve]"
17,c1ccc2c(Nc3ccncc3)nc(-c3ccc4c(c3)OCO4)nc2c1,"inconclusive [inhibitor, single point]"
18,Oc1ccc(/C=N/n2c(COc3ccccc3)n[nH]c2=S)cc1O,"inconclusive [inhibitor, single point]"
19,O=C(C[C@H]1C(=O)N(c2ccccc2)C[C@@H]1Cc1ccccc1)Nc1ccccc1,"inconclusive [inhibitor, single point]"
20,O=C(Cn1ncc2c3ccccc3n(Cc3ccccc3F)c2c1=O)NCC1CCCO1 (stereo unspecified),"inconclusive [inhibitor, single point]"
21,COC(=O)C(C)NC(=O)C1CCCN1S(=O)(=O)c1cc(C)c(Cl)cc1C (stereo unspecified),"inconclusive [inhibitor, single point]"
22,COc1ccc(Cl)cc1N/C(N)=N/c1nc(CSc2ccc(C)cc2)cc(=O)[nH]1,"inconclusive [inhibitor, partial curve]"

row,Compound,Potency
1,CC1CCN(S(=O)(=O)c2cc(C(=O)N3CCN(c4cccc(Cl)c4)CC3)n(C)c2)CC1,"inconclusive [inhibitor, single point]"
2,Cc1sc2ncnc(SCC(=O)N3c4ccccc4Sc4ccc(Cl)cc43)c2c1C,inactive
3,COc1ccc(S(=O)(=O)N2CCN(CC(=O)c3ccc(O)c(O)c3)CC2)cc1,"inconclusive [inhibitor, single point]"
4,C[n+]1c(/C=C/c2ccnc3ccccc23)cc(/C=C/c2ccnc3ccccc23)c2ccccc21,active: 5.01 µM
5,CCCCCCCCN1C(=O)[C@H](CC(=O)NCc2ccc(OC)c(OC)c2)C[C@@]2(C(=O)OC)CC(C)(C)CC=C12,active: 18.4 µM
6,CCn1nnnc1Sc1nc(C)nc2scc(-c3ccccc3)c12,"inconclusive [inhibitor, single point]"
7,COc1ccc(C(=O)N2CCC(C(=O)Nc3ccc(C)cc3)CC2)cc1,active: 18.4 µM
8,O=C(CSc1nnc2sc3ccccc3n12)NCc1ccco1,"inconclusive [inhibitor, single point]"
9,COc1cc(O)c(C(CCN2CCN(c3ccccc3)CC2)c2cc(OC)c(OC)c(OC)c2)c(OC)c1 (stereo unspecified),active: 20.6 µM
10,Cc1ccc(C2CC(=O)c3cnc(NC(=O)c4ccco4)nc3C2)cc1 (stereo unspecified),inactive
11,CCN(C(=O)CN1C(=O)NC2(CCCC2)C1=O)c1nc2c(C)cccc2s1,"inconclusive [inhibitor, single point]"
12,Cc1cccc(-c2cc3nc(C)cc(NCCCN(C)C)n3n2)c1,"inconclusive [inhibitor, single point]"
13,COc1ccc(N(CC(=O)N2CCc3ccccc3C2)S(=O)(=O)c2ccccc2)cc1,active: 18.4 µM
14,O=C(CN1C(=O)NC2(CCCc3ccccc32)C1=O)NCc1ccc(Cl)cc1Cl (stereo unspecified),"inconclusive [inhibitor, single point]"
15,COc1ccc2cc3cc(C(=O)N(C)C4CCCCC4)oc3nc2c1,"inconclusive [inhibitor, single point]"
16,COc1ccc(Nc2ncnc3c2cnn3Cc2ccc(C)cc2)cc1,"inconclusive [inhibitor, partial curve]"
17,CC(=O)N1CCN(c2ccc(NC(=O)C(c3ccccc3)c3ccccc3)cc2)CC1,inactive
18,COc1ccccc1C1C(C(=O)N2CCCCC2)=C(C)Nc2nc3ccccc3n21 (stereo unspecified),inactive
19,C[C@]12c3[nH]c4ccc(Cl)cc4c3CCN1C(=O)[C@@H](CC(=O)NCc1ccco1)C[C@@H]2C(=O)N1CCOCC1,active: 18.4 µM
20,c1ccc(-n2cnc3cc(NCc4ccncc4)ccc32)cc1,"inconclusive [inhibitor, single point]"
21,Cc1onc(-c2ccccc2Cl)c1C(=O)OCC(=O)N1CCC(C)CC1,"inconclusive [inhibitor, single point]"
22,CCN(CC)CCCNC(=O)c1cc(-c2ccc(Cl)c(Cl)c2)on1,active: 20.6 µM

row,Compound,Potency
1,CCOC(=O)Cn1c(=O)c2c(nc3n2CCCCN3c2ccc(OCC)cc2)n(C)c1=O,"inconclusive [inhibitor, single point]"
2,CCOC(=O)c1ccc(NC(=S)NCCc2ccccc2F)cc1,"inconclusive [inhibitor, single point]"
3,CCOc1ccc(N2CC(O)=C(c3ccccc3)C2=N)cc1,inactive
4,CSc1ccc(CCNC(=O)Cn2c(C)c3cnn(-c4ccccc4)c(=O)c3c2C)cc1,"inconclusive [inhibitor, single point]"
5,C/C(N)=C(/C#N)C(=O)COC(=O)c1ccccc1Oc1ccccc1,"inconclusive [inhibitor, single point]"
6,COc1cccc(/C=C/c2nc(C#N)c(NC3CCCCC3)o2)c1,"inconclusive [inhibitor, partial curve]"
7,COc1ccc2cc3cc(C(=O)NCCCN4CCC(C)CC4)oc3nc2c1,"inconclusive [inhibitor, single point]"
8,Cc1cc(C=C2C(=O)c3ccccc3C2=O)c(C)n1-c1ccc(C(=O)O)cc1,inactive
9,COc1ccc(-c2cnc3c(NC=O)cc(-c4ccccc4)cn23)cc1OC,active: 0.92 µM
10,O=C(Nc1ccc(F)cc1)Nc1cccnc1Cl,"inconclusive [inhibitor, single point]"
11,Oc1ccc(C(=S)N2CCCC2)cc1,"inconclusive [inhibitor, single point]"
12,Cc1ccc(CNC(=O)c2ccc(Cn3c(SCc4ccc(F)cc4)nc4cccnc43)cc2)o1,"inconclusive [inhibitor, single point]"
13,COC(=O)C1=CN(c2ccc(N3CCOCC3)cc2)C(N)=C(C#N)C1c1ccccc1 (stereo unspecified),"inconclusive [inhibitor, single point]"
14,Cc1ccc(S(=O)(=O)N2Cc3ccccc3CC2C(N)=O)cc1 (stereo unspecified),inactive
15,O=c1[nH]c(N/N=C\c2ccc3c(c2)OCO3)nc2ccccc12,"inconclusive [inhibitor, single point]"
16,N=c1c2c(-c3ccccc3)c(-c3ccccc3)n(Cc3ccco3)c2ncn1CCN1CCOCC1,"inconclusive [inhibitor, single point]"
17,CCCCNc1ncnc2[nH]ncc12,"inconclusive [inhibitor, single point]"
18,CCc1cccc(NC(=O)CSc2nnc(-c3cc4occc4n3C)n2-c2ccccc2C)c1,"inconclusive [inhibitor, single point]"
19,COc1ccc(N2Cc3ccccc3C2=NC(=O)c2ccc(C)cc2)cc1OC,"inconclusive [inhibitor, single point]"
20,CSCC[C@H](NC(=O)OC(C)(C)C)C(=O)N/N=C/c1cc2ccc(C)cc2nc1Cl,inactive
21,COc1cccc(C(NC(C)=O)c2nc(-c3ccc(N(C)C)cc3)cs2)c1 (stereo unspecified),"inconclusive [inhibitor, single point]"
22,O=C(c1ccc(F)cc1)N1CCCC(C(=O)N2CCCCC2)C1 (stereo unspecified),inactive
